# Test results taken from the supplement of paper PMC5499739.
# The full ranking holds about 16,000 sequences; the median of “Z-score” is about -0.37, and the highest 2% start at about 3.2. The list shows a part of the results.
# Test system: RBM10 RRM1-ZnF (GST-tagged construct)
# Assay: RNAcompete 7-mer binding Z-score; higher = stronger binding preference
# In short: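 Each heptamer motif was given a one-sided Z-score for enrichment across the probes that contained it. GST-tagged RBM10 constructs (20 pmol) were combined with 1.5 nmol of a designed pool of 241 399 RNAs of up to 41 nt, transcribed from microarray-derived DNA templates. Binding took place in 1 ml Hepes pH 7.8 buffer containing KCl, NaCl, glycerol, DTT, BSA and glutathione Sepharose beads for 30 min at 4°C. After four 2-min washes at 4°C, bound RNA was identified by microarray hybridisation.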
row,Sequence,RNAcompete 7-mer binding Z-score
1,GCUUGUC,-0.665
2,AAAUUCC,-0.867
3,UGCGAAC,-0.0999
4,AUCCUUA,-0.844
5,GACCCAC,-0.659
6,UUCGCAA,-0.743
7,AUACUCG,-0.62
8,UCAAGUG,-0.035
9,AAGUAAG,0.761
10,UAUAAUA,-0.412
11,CACGGGG,2.66
12,CACGAAC,-0.626
13,CGCUGGC,-0.379
14,AUAGCGC,-0.457
15,UUACGUC,-0.535
16,UCUAUUG,-0.649
17,CUUCCCU,-0.824
18,UUAUUGC,-0.772
19,ACCGACG,-0.256
20,UAGAAGU,0.342
21,CUGGCGU,-0.259
22,CCGCUCA,-0.805
23,UGCUAAA,-0.574

row,Sequence,RNAcompete 7-mer binding Z-score
1,CUUCACA,-0.746
2,AACAGGG,3.15
3,CCAUACG,-0.72
4,UUCUAAU,-0.766
5,CCUGUUU,-0.824
6,UUGGGUA,2.33
7,GGACUGA,0.914
8,UAGUUGA,0.277
9,AGGCGUC,-0.00896
10,CCGCUAU,-0.75
11,CCAGACA,-0.529
12,GGCGAUG,1.48
13,AUGGGAA,3.97
14,CCCAAUU,-0.691
15,UUCGCAG,-0.474
16,CAGGCAG,0.725
17,CAUUCUC,-0.844
18,AGGUGGU,2.18
19,CUGUGCA,-0.383
20,UGCAGCU,-0.223
21,UGUGGCC,0.16
22,GCGCGUA,-0.171
23,GCAAUCC,-0.629

row,Sequence,RNAcompete 7-mer binding Z-score
1,UGUCUUU,-0.6
2,CCCCAUG,-0.591
3,AGGAUCU,-0.334
4,AUUCGGU,-0.145
5,UAAUAUU,-0.607
6,AUGAUGC,-0.204
7,UAGUAAU,-0.23
8,AAGAUAU,-0.373
9,CCCGGUA,-0.139
10,ACUUUAU,-0.779
11,GAAUAUA,-0.0999
12,CCCAGUA,-0.623
13,GGCAAAC,0.3
14,GGCAAGG,2.89
15,GCACCUU,-0.659
16,GGAAACG,1.75
17,UGGUGCG,1.73
18,CCGCCGC,-0.561
19,UACUUCC,-0.971
20,UACGAAC,-0.5
21,UAGGCUU,-0.246
22,UCCGUAA,-0.727
23,GUGCACC,-0.113

row,Sequence,RNAcompete 7-mer binding Z-score
1,CGUAUAA,-0.243
2,UCUGGCG,-0.409
3,AUUGAAA,-0.292
4,CUAAAAG,-0.194
5,UGACUCC,-0.652
6,CCUACAU,-0.883
7,CACAUAU,-0.75
8,CGGUUUC,-0.168
9,UGUCGUG,-0.0967
10,GUUAGCG,0.452
11,UAAAACC,-0.548
12,GUCGACC,-0.448
13,UCCUGCU,-0.876
14,GUACCUC,-0.519
15,CCUGGAG,0.176
16,UGCAGCC,-0.474
17,CGUCGGG,0.868
18,GUCGUCG,0.0463
19,UAGAGGU,1.61
20,CACAAAA,-0.581
21,GACCGGA,0.03
22,GCUAGGU,1.08
23,GCCGAAG,-0.00571

row,Sequence,RNAcompete 7-mer binding Z-score
1,UAAAAAC,-0.35
2,UGACACA,-0.373
3,AGACGUU,-0.552
4,UCGUAAU,-0.61
5,CUGUAGG,0.3
6,GAUCGCG,-0.266
7,AACACGU,-0.353
8,CACAGUA,-0.314
9,CCCCACU,-0.571
10,ACGUCCA,-0.769
11,UUGCUCA,-0.652
12,UAGAUGA,0.358
13,GCACUCU,-0.662
14,GAACACG,0.235
15,UCCUUAC,-0.759
16,CUGAUUA,-0.698
17,AUCUACA,-0.568
18,AUACUUU,-0.88
19,CAAUAAU,-0.694
20,ACUUGCA,-0.73
21,GGGCCCA,-0.155
22,GCUACUU,-0.717
23,GAAAAUG,1.43

row,Sequence,RNAcompete 7-mer binding Z-score
1,CUGCAUA,-0.535
2,AACGUAG,0.605
3,ACCGCCU,-0.792
4,ACUUCCA,-0.802
5,CCGAGAA,-0.399
6,AUACGUU,-0.584
7,AGUCGGA,0.787
8,AGUAGCG,0.472
9,UUGAAUU,-0.552
10,GUCCUCU,-0.513
11,UAGCGCU,-0.519
12,GAGACAA,0.407
13,AUCAAGA,-0.266
14,ACAGAUA,-0.431
15,CAUAUUU,-0.886
16,CCCCAUC,-0.474
17,AUCGCUU,-0.802
18,GCUCUCC,-0.626
19,AUUCCGU,-0.746
20,UGAGCGA,1.23
21,GUGUGGA,2.98
22,GCGGAGA,1.61
23,GGUUGGU,2.56

row,Sequence,RNAcompete 7-mer binding Z-score
1,ACCUGUC,-0.766
2,AGGUGAC,1.45
3,UACUAAG,-0.285
4,CGCCCGG,-0.249
5,CCCCGGC,-0.145
6,CAUCGGG,0.884
7,GGCGAGG,2.8
8,UGUUUGU,0.0658
9,GGGGAGA,3.3
10,CGCAUCC,-0.694
11,CUAGUUA,-0.412
12,UCACGUC,-0.558
13,CUUCUAU,-0.841
14,AAUAAGU,-0.0902
15,UGUGGAG,2.62
16,GUUAGAG,1.18
17,AGGUGAA,2.21
18,AUAGAUG,0.543
19,CAGAGCU,-0.415
20,CUGCAGG,0.417
21,CACUCAC,-0.617
22,UGUGCUG,0.222
23,UCACAAU,-0.646

row,Sequence,RNAcompete 7-mer binding Z-score
1,UUCCAUC,-0.675
2,GGAAGCA,1.5
3,UUUUGAG,-0.11
4,GCUAGGC,-0.0285
5,UUUUAGU,-0.558
6,UAGGUAA,1.74
7,AAUCGAA,-0.181
8,CGUUUGA,-0.717
9,GCGUAUU,-0.22
10,GCUGAGG,1.5
11,GUCUUGA,-0.724
12,ACGGCGU,-0.00246
13,UUCCGUC,-0.652
14,CAGUAGG,1.58
15,CCUGCUA,-0.961
16,AAGCAAC,-0.191
17,UUAGGCG,0.566
18,GGCGGCC,0.456
19,GCAAAUU,-0.47
20,AUAGACU,-0.561
21,ACGGGUC,1.19
22,AGUGCCC,-0.47
23,AAGUGAG,1.24
